The other results are listed elsewhere or left out. The full chains were built here from the parent and the listed change. Inactive controls read about 0.05.
B1: TEV protease; numbered along this chain (parent)
chain: MGESLFKGPRDYNPISSSICHLTNESDGHTTSLYGIGFGPFIITNKHLFRRNNGTLVVQSLHGVFKVKDTTTLQQHLVDGRDMIIIRMPKDFPPFPQKLKFREPQREERICLVTTNFQTKSMSSMVSDTSCTFPSGDGIFWKHWIQTKDGQCGSPLVSTRDGFIVGIHSASNFTNTNNYFTSVPKNFMELLTNQEAQQWVSGWRLNADSVLWGGHKVFMVKPEEPFQPVKEATQL

Variants of: B1
Experiment: raw area under fraction-flipped curve 0-4 h after induction (AUC4h, not background-subtracted), DNA-recorder readout of cleavage of the substrate (dimensionless); higher = more cleavage of the substrate by the protease variant
Details: temperature: 34 °C; time window: 0-4 h after rhamnose induction
Description: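 In vivo DNA recorder in E. coli TOP10(DE3) ΔrhaA at 34 °C. Each TEVp single-site mutant (parent TEVp 0) is paired with a single-site variant of the 7-mer TEVs (canonical ENLYFQ|S). The substrate sits between flexible linkers in a Bxb1-sfGFP-TEVs-SsrA fusion, so cleavage stabilises Bxb1 and speeds flipping of a recombination array, read by NGS. The value is the raw area under the fraction-flipped curve over 0-4 h after rhamnose induction (AUC4h), with ≥20 reads per time point. It is not background-subtracted; inactive controls average about 0.047.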
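Note: Bxb1 expression induced with 0.2% (w/v) L-rhamnose at OD600 near 0.5, cultures sampled hourly, flipped fraction per protease–substrate barcode pair counted by paired-end Illumina sequencing.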

| Variant | area with substrate DNLYFQS | area with substrate FNLYFQS | area with substrate HNLYFQS | area with substrate LNLYFQS | area with substrate PNLYFQS | area with substrate TNLYFQS | area with substrate WNLYFQS | area with substrate YNLYFQS | area with substrate GNLYFQS | area with substrate INLYFQS | area with substrate KNLYFQS | area with substrate MNLYFQS | area with substrate NNLYFQS | area with substrate SNLYFQS | area with substrate VNLYFQS | area with substrate RNLYFQS | area with substrate QNLYFQS |
| --- | --- | --- | --- | --- | --- | --- | --- | --- | --- | --- | --- | --- | --- | --- | --- | --- | --- |
| T132H | 0.0669 | 0.0457 | 0.0585 | 0.0461 | 0.0667 | 0.0505 | 0.0573 | 0.0562 |  |  |  |  |  |  |  |  |  |
| C20K | 0.0556 |  | 0.0377 | 0.0479 |  | 0.0531 | 0.0502 | 0.0581 | 0.0763 | 0.055 | 0.0402 | 0.0455 | 0.0451 | 0.047 |  |  |  |
| M83S | 0.0606 | 0.0579 | 0.0524 | 0.0307 | 0.067 | 0.053 | 0.0738 |  | 0.0442 |  |  |  |  | 0.0425 | 0.0631 |  |  |
| H215M | 0.0747 |  | 0.0669 | 0.0605 | 0.0353 |  | 0.0628 |  |  |  | 0.0631 |  |  | 0.0578 |  | 0.0525 |  |
| E108H | 0.0382 |  | 0.0544 | 0.0694 | 0.0381 | 0.075 | 0.0317 | 0.0371 | 0.0517 | 0.0593 | 0.0607 | 0.0526 |  | 0.0791 | 0.0564 |  |  |
| I164K | 0.0521 |  | 0.0571 |  | 0.0563 |  | 0.0457 |  |  |  |  | 0.0516 |  |  |  |  |  |
| F41R | 0.0152 |  |  | 0.0486 |  | 0.0514 | 0.0498 | 0.0522 |  | 0.0507 | 0.0535 | 0.0476 | 0.0628 | 0.0657 | 0.0542 | 0.0405 |  |
| F101T | 0.0503 |  | 0.0479 | 0.06 |  |  | 0.0704 |  | 0.0575 |  |  | 0.0553 | 0.0556 |  |  | 0.0571 | 0.0399 |
| S121R | 0.0852 | 0.0702 | 0.0801 | 0.0705 | 0.0686 | 0.0676 | 0.0611 | 0.0605 | 0.0734 | 0.0649 | 0.0784 | 0.0756 | 0.0616 | 0.0802 | 0.0742 | 0.038 |  |
| V217G | 0.0582 |  |  |  |  | 0.0619 |  |  | 0.0472 | 0.0458 |  |  |  |  |  |  |  |
| M122D | 0.102 | 0.0863 | 0.0608 | 0.0731 | 0.0799 | 0.0608 |  | 0.0863 |  |  | 0.0769 | 0.0412 | 0.0766 | 0.0673 | 0.0461 |  |  |
| M219P | 0.062 | 0.054 | 0.0531 | 0.0684 | 0.0638 | 0.0562 | 0.0564 | 0.0516 | 0.057 | 0.032 |  |  | 0.0627 |  | 0.0482 |  |  |
| T132L | 0.0703 |  | 0.0708 | 0.0598 | 0.0714 | 0.0556 |  | 0.056 | 0.067 | 0.0402 |  |  |  | 0.0704 |  |  | 0.0697 |
| K90C | 0.0845 | 0.0622 | 0.0876 | 0.0689 | 0.0573 | 0.0658 | 0.0718 | 0.0637 | 0.0842 | 0.0623 |  |  | 0.0697 | 0.0651 | 0.0578 | 0.0678 |  |
| S171D | 0.0595 | 0.0526 | 0.0613 |  | 0.0621 | 0.035 |  |  | 0.057 | 0.0556 |  |  |  | 0.0562 |  | 0.0645 | 0.0586 |
| V220L | 0.0573 | 0.0605 | 0.0661 | 0.0729 | 0.0605 | 0.0654 | 0.0507 |  | 0.0746 | 0.0351 | 0.0601 | 0.0597 |  | 0.0435 | 0.0536 |  | 0.0594 |

| Variant | area with substrate DNLYFQS | area with substrate FNLYFQS | area with substrate HNLYFQS | area with substrate LNLYFQS | area with substrate PNLYFQS | area with substrate TNLYFQS | area with substrate WNLYFQS | area with substrate YNLYFQS | area with substrate GNLYFQS | area with substrate INLYFQS | area with substrate KNLYFQS | area with substrate MNLYFQS | area with substrate NNLYFQS | area with substrate SNLYFQS | area with substrate VNLYFQS | area with substrate RNLYFQS | area with substrate QNLYFQS |
| --- | --- | --- | --- | --- | --- | --- | --- | --- | --- | --- | --- | --- | --- | --- | --- | --- | --- |
| S201V | 0.0744 | 0.0567 | 0.0607 |  | 0.0672 | 0.0719 | 0.0547 |  | 0.0578 |  |  | 0.0494 |  | 0.0612 | 0.0736 |  |  |
| Q75H | 0.062 | 0.0632 | 0.0544 |  | 0.051 | 0.0694 | 0.0594 |  |  |  |  |  | 0.0382 | 0.0702 |  |  |  |
| I42P | 0.0472 |  | 0.0436 | 0.0501 | 0.054 | 0.0453 | 0.0361 | 0.044 |  | 0.0473 | 0.0693 | 0.0337 |  | 0.0386 | 0.02 | 0.0447 | 0.0368 |
| N175V | 0.0527 | 0.0596 | 0.0402 |  | 0.0527 | 0.0629 | 0.06 | 0.118 |  | 0.047 |  | 0.0377 | 0.0594 |  |  | 0.0595 |  |
| Q197S | 0.0773 |  | 0.0662 | 0.0565 |  | 0.0746 | 0.0559 | 0.0593 |  | 0.0548 |  |  |  | 0.0741 | 0.0654 | 0.0579 | 0.0755 |
| Q234M | 0.0781 |  | 0.0615 | 0.0491 |  |  | 0.0663 |  | 0.0695 | 0.0646 |  | 0.077 |  |  | 0.0649 | 0.0554 | 0.0522 |
| F41S | 0.0681 | 0.0632 | 0.0605 | 0.0582 | 0.0525 | 0.0521 | 0.0475 | 0.0379 |  | 0.0613 | 0.0534 |  | 0.0428 | 0.0655 | 0.0555 |  |  |
| D27R | 0.0712 |  | 0.048 | 0.0384 | 0.0425 |  | 0.0574 | 0.0647 | 0.0632 |  |  |  |  | 0.0456 |  |  |  |
| R204A | 0.0859 | 0.0636 |  | 0.0746 | 0.0734 | 0.0662 | 0.0643 |  |  | 0.0807 | 0.0648 | 0.0649 |  | 0.0735 |  |  | 0.0541 |
| L33E | 0.0648 |  | 0.0548 | 0.079 | 0.0619 |  | 0.0555 | 0.0483 | 0.0715 | 0.0511 | 0.0401 |  |  | 0.0571 | 0.0568 |  |  |
| I167N | 0.0504 | 0.0555 | 0.058 | 0.0567 | 0.0526 | 0.0988 |  | 0.0436 |  | 0.0413 |  |  |  | 0.0452 | 0.0498 |  |  |
| P222N | 0.068 | 0.0491 | 0.0697 | 0.0611 | 0.0628 | 0.052 | 0.0657 | 0.0253 |  | 0.0577 |  | 0.0518 |  | 0.0634 | 0.0599 | 0.0519 | 0.0608 |
| I139H | 0.0573 |  | 0.0616 |  |  | 0.0601 |  |  |  |  |  |  |  |  |  |  |  |
| I42M | 0.0844 | 0.0671 | 0.0632 | 0.0605 |  |  | 0.0395 | 0.0674 | 0.0694 | 0.0634 |  | 0.0799 | 0.0777 | 0.0752 | 0.0786 | 0.0604 | 0.0716 |
| P155R | 0.0517 | 0.0469 | 0.054 | 0.0539 |  | 0.0455 | 0.0575 | 0.0381 | 0.0523 | 0.0501 |  | 0.0582 |  | 0.0443 | 0.0558 | 0.0661 |  |
| L112P | 0.0647 | 0.0411 | 0.0669 | 0.0514 | 0.0512 | 0.0415 | 0.0495 |  | 0.0515 | 0.0488 | 0.059 | 0.0626 | 0.0515 | 0.0604 |  | 0.0568 |  |

Reference: the supplement of paper PMC12217912
